B1: TRI130 (bispecific antibody)
chain: [about 100 residues skipped]TFGGGTKVEIKGGGGSGGGGSGGGGSGGGGSEVQLLESGGGLVQPGGSLRLSCAASGFTFSSYGMSWVRQAPGKGLEGVSAISGSGGSTYYADSVKGRFTISRDNSKNTLYLQMNSLRAEDTAVYYCAKEKLRYFDWLSDAFDIWGQGTMVTVSSSEPKSSDKTHTCPPCPAPEAAGAPSVFLFPPKPKDTLMISRTPEVTCVVVDVSHEDPEVKFNWYVDGVEVHNAKTKPREEQYNSTYRVVSVLTVLHQDWLNGKEYKCAVSNKALPAPIEKTISKAKGQPREPQVYTLPPSRDELTKNQVSLTCLVKGFYPSDIAVEWESNGQPENNYKTTPPVLDSDGSFFLYSKLTVDKSRWQQGNVFSCSVMHEALHNHYTQKSLSLSPGSGGGGSGGGGSGGGGSPSQVQLVQSGPEVKKPGSSVKVSCKASGYTFSRSTMHWVRQAPGQGLEWIGYINPSSAYTNYNQKFKDRVTITADKSTSTAYMELSSLRSEDTAVYYCARPQVHYDYNGFPYWGQGTLVTVSSGGGGSGGGGSGGGGSGGGGSDIQMTQSPSTLSASVGDRVTMTCSASSSVSYMNWYQQKPGKAPKRWIYDSSKLASGVPSRFSGSGSGTDYTLTISSLQPDDFATYYCQQWSRNPPTFGGGTKVEIKRS
notes: scFv-Fc-scFv, anti-CD123 × anti-CD3ε; dimer; also called OMT1 VLVH × TSC456 scFv-Fc-scFv; TRI1130
B2: TRI185 (bispecific antibody)
chain: [about 100 residues skipped]TFGGGTKVEIKGGGGSGGGGSGGGGSGGGGSEVQLLESGGGLVQPGGSLRLSCAASGFTFSSYGMSWVRQAPGKGLEGVSAISGSGGSTYYADSVKGRFTISRDNSKNTLYLQMNSLRAEDTAVYYCAKEKLRYFDWLSDAFDIWGQGTMVTVSSSEPKSSDKTHTCPPCPAPEAAGAPSVFLFPPKPKDTLMISRTPEVTCVVVDVSHEDPEVKFNWYVDGVEVHNAKTKPREEQYNSTYRVVSVLTVLHQDWLNGKEYKCAVSNKALPAPIEKTISKAKGQPREPQVYTLPPSRDELTKNQVSLTCLVKGFYPSDIAVEWESNGQPENNYKTTPPVLDSDGSFFLYSKLTVDKSRWQQGNVFSCSVMHEALHNHYTQKSLSLSPGSGGGGSGGGGSGGGGSPSEVQLVESGGGLVQPGGSLRLSCAASGFTFSTYAMNWVRQAPGKGLEWVGRIRSKYNNYATYYADSVKDRFTISRDDSKNSLYLQMNSLKTEDTAVYYCVRHGNFGNSYVSWFAYWGQGTLVTVSSGGGGSGGGGSGGGGSGGGGSQAVVTQEPSLTVSPGGTVTLTCRSSTGAVTTSNYANWVQQKPGQAPRGLIGGTNKRAPWTPARFSGSLLGGKAALTITGAQAEDEADYYCALWYSNLWVFGGGTKLTVLRS
B3: DRA240 (Fc fusion)
chain: QVQLVESGGGVVQPGRSLRLSCKASGYTFTRSTMHWVRQAPGQGLEWIGYINPSSAYTNYNQKFKDRFTISADKSKSTAFLQMDSLRPEDTGVYFCARPQVHYDYNGFPYWGQGTPVTVSSGGGGSGGGGSGGGGSAQDIQMTQSPSSLSASVGDRVTMTCSASSSVSYMNWYQQKPGKAPKRWIYDSSKLASGVPARFSGSGSGTDYTLTISSLQPEDFATYYCQQWSRNPPTFGGGTKLQITSSS[human IgG1 Fc with changes skipped]
notes: anti-CD3 scFv (CRIS-7 derived, humanized) at the N-terminus of Fc; also called CRIS-7 scFv-Fc; DRA040

How the values were obtained:
[1] = molecular target: T1, human CD123 on the surface of CD123(+) cell lines (human, UniProt P26951 19-378); assay: flow cytometry on CD123(+) Molm-13 cells, PE anti-human IgG Fc secondary antibody, MFI; table under the graph
T1 construct: whole, on cells; endogenous protein of tumor cell lines; also called interleukin-3 receptor alpha chain; IL3RA
T1 sequence (looked up): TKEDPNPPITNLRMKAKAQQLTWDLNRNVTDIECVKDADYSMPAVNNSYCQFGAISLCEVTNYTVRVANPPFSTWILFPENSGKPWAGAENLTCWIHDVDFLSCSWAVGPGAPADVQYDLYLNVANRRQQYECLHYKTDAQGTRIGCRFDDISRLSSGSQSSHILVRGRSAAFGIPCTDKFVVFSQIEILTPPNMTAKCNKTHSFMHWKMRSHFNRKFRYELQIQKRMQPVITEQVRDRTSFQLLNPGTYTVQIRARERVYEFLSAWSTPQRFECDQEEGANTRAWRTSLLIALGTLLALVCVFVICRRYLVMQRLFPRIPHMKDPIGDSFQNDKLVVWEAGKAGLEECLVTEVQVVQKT

[2] = molecular target: T2, Full-length cynomolgus CD123, isoform 1 (TRI114), on transfected cells (cynomolgus monkey); assay: flow cytometry on CHO cells stably expressing cynomolgus CD123, PE anti-human IgG Fc secondary antibody, MFI; table under the graph
T2 construct: also called cyno CD123; CHO cells stably expressing cynomolgus CD123 protein
T2 chain: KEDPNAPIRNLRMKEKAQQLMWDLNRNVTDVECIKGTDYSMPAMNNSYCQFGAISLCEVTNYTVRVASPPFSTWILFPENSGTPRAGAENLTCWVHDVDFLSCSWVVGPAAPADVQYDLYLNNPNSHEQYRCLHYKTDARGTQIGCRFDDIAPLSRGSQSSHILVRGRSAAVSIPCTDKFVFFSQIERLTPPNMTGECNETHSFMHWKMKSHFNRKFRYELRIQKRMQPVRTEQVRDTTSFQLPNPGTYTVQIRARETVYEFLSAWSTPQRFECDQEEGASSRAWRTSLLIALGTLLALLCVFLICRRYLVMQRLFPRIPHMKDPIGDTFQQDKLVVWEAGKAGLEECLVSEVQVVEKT

[3] = molecular target: T1, human CD123 on the surface of CD123(+) …; assay: cell-based or functional assay
[4] = molecular target: T3, CD3ε on Jurkat cells and human T-cells (human, UniProt P07766); assay: flow cytometry on CD3ε(+) Jurkat cells, PE anti-human Fc secondary
T3 construct: whole, on cells; on cells CD3ε stands in the TCR/CD3 complex; also called CD3 epsilon; CD3ε(+) Jurkat cell line
T3 sequence (P07766 23-207): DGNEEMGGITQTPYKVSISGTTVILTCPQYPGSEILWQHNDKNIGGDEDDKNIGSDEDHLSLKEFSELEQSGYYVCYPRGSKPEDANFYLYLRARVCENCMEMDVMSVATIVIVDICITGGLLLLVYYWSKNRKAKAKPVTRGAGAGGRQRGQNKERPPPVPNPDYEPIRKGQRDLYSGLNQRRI

| Binder | EC50 [1] [nM] | EC50 [2] [nM] | EC50 of T-cell activation (CD4+ and CD8+ CD25+ CD69+) with Molm-13 cells, 24 hours [3] [nM] | EC50 of T-cell proliferation (CFSE) with Molm-13 cells, 4 days [3] [nM] | EC50 [4] [nM] |
| --- | --- | --- | --- | --- | --- |
| B1 | 4.65 | 12.1 | < 0.01 | 0.012 to 0.021 | – |
| B2 | – | – | < 0.01 | 0.009 to 0.023 | – |
| B3 | – | – | – | – | 0.2 |
